This is an account of results in PMC4336329 (PLoS ONE, 2015).

About 2,200 (0.71%) of roughly 310,000 compounds showed an effect of 50% or more. Effects have a minus sign here. This is one part of the list.

In this assay the target is human ether-à-go-go-related gene (hERG) potassium channel (human, UniProt Q12809). Description: primary screen, population patch clamp on CHO cells stably expressing hERG.
human ether-à-go-go-related gene (hERG) potassium channel, sequence (Q12809 whole entry, looked up): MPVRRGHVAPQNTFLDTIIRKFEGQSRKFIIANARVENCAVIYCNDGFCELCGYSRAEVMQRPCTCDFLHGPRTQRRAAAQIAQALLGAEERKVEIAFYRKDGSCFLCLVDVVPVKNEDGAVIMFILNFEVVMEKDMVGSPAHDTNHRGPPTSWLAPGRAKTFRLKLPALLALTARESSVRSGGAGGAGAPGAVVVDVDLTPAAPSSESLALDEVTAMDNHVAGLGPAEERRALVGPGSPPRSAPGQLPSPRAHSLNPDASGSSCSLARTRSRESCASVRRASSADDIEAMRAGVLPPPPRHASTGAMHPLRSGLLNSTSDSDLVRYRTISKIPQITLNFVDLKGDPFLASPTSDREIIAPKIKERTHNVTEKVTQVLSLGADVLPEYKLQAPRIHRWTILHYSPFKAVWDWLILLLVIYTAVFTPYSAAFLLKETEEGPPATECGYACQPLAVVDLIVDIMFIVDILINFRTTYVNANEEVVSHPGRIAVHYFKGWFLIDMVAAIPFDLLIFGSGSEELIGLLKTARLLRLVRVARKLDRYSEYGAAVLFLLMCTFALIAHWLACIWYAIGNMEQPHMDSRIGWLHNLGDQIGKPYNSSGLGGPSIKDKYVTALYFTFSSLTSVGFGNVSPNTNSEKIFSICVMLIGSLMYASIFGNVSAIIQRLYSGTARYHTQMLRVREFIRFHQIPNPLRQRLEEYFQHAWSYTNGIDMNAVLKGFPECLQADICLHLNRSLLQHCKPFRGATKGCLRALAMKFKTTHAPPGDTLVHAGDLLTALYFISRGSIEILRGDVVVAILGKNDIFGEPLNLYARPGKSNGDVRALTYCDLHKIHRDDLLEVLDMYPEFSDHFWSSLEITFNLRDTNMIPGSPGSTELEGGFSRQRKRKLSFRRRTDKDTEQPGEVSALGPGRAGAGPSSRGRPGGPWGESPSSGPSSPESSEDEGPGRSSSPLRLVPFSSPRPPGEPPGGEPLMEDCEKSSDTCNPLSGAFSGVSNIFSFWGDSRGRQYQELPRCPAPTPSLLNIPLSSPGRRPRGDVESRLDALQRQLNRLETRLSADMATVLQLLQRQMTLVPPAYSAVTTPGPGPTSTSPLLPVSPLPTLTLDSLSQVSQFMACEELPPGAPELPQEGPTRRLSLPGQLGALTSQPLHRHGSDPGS
Regarding `CC(=O)N1N=C(c2ccc(C(C)(C)C)cc2)OC1(C)C`, the “hERG current change (%, negative = inhibition) at 1uM” value is reported as -0.346%.

Regarding `COc1ccc(NC2CS(=O)(=O)CC2OC(=O)c2ccc(F)cc2)cc1` (stereo not drawn), the “hERG current change (%, negative = inhibition) at 1uM” value was determined as 2.12%.

As to `O=C(Nc1ccccc1)OCN1C(=O)c2ccccc2C1=O`, the “hERG current change (%, negative = inhibition) at 1uM” value is given as 2.8%.

On to `Cc1ccc(Cc2c[nH]c(=S)s2)cc1`, for which the “hERG current change (%, negative = inhibition) at 1uM” value came out at 17.7%.

As to `Cc1cccc(NC(=O)COc2ccc(Br)cc2/C=N/O)c1`, the “hERG current change (%, negative = inhibition) at 1uM” value is on record as 13.8%.

On to `CC(C)n1cnc2c(NCc3ccccc3)nc(NCc3ccccc3)nc21`, for which the “hERG current change (%, negative = inhibition) at 1uM” value stood at 10.4%.

`CCCc1n[nH]c(=O)c2c1nnn2Cc1ccccc1`: the “hERG current change (%, negative = inhibition) at 1uM” value turned out to be 9.72%.

Turning to `O=C(c1ccc(Cl)cc1Cl)N1CCc2ccccc21`, the “hERG current change (%, negative = inhibition) at 1uM” value was 6.45%.

Take `CCOc1cc(/C=N/Nc2cc(C)nc3ccc(C)cc23)ccc1O`: the “hERG current change (%, negative = inhibition) at 1uM” value was 16.8%.

Consider `O=C(CNC(=O)c1ccccc1F)N/N=C/c1ccc2c(c1)OCO2`, for which the “hERG current change (%, negative = inhibition) at 1uM” value is recorded as 4.9%.

With `CCOC(=O)c1c(C)nc2c(c1-c1cc(OC)ccc1OC)C(=O)CC(C)(C)C2`, the “hERG current change (%, negative = inhibition) at 1uM” value turned out to be 13.7%.

Take `COc1ccc(NC(=S)Nc2ccc(F)cc2)cc1`: the “hERG current change (%, negative = inhibition) at 1uM” value came to 15.3%.

For the compound `CSCC[C@H](NC(=O)[C@H](Cc1ccccc1)n1c(=O)[nH]c2ccccc2c1=O)C(=O)N1CCC[C@H]1C(=O)O`, the “hERG current change (%, negative = inhibition) at 1uM” value is listed as -10.3%.

As for `O=C(NC(=S)N1CCN(c2ccc(F)cc2)CC1)C12CC3CC(CC(C3)C1)C2`, the “hERG current change (%, negative = inhibition) at 1uM” value was determined as 7.92%.

In the case of `CCOC(=O)c1[nH]c2ccc(OC)cc2c1NC(=O)N1CCOCC1`, the “hERG current change (%, negative = inhibition) at 1uM” value was 9.75%.

In the case of `CC(C)c1ccc(/C=N/NC(=O)CC(=O)NCc2ccccc2)cc1`, the “hERG current change (%, negative = inhibition) at 1uM” value was 10.9%.

With `Cl.NCC(O)CN1CCN(Cc2ccccc2)CC1` (stereo not drawn), the “hERG current change (%, negative = inhibition) at 1uM” value stood at 12.2%.

Turning to `Clc1ccc(-c2nnc(CSc3nnc(-c4cccs4)n3Cc3ccccc3)o2)cc1`, the “hERG current change (%, negative = inhibition) at 1uM” value is listed as -0.743%.

`COc1ccc(NC(=O)CN(C)C(=O)c2ccc(-c3ccccc3Cl)o2)cc1`: the “hERG current change (%, negative = inhibition) at 1uM” value is listed as 1.28%.

In the case of `O=C(CCc1nnc(CCc2ccccc2)o1)N1CCCC1c1nccs1` (stereo not drawn), the “hERG current change (%, negative = inhibition) at 1uM” value was found to be 3.53%.

Regarding `O=C(Nc1ccc(-c2nc3ccc(NC(=O)c4cccs4)cc3[nH]2)cc1)c1cccs1`, the “hERG current change (%, negative = inhibition) at 1uM” value is 13.3%.

Turning to `Cc1ccc(N2CCN(C(=O)NC3CCCCC3)CC2)c(C)c1`, the “hERG current change (%, negative = inhibition) at 1uM” value came out at 10.5%.

As to `O=C(CN1CCN(S(=O)(=O)c2ccccc2)CC1)NC(=O)NCc1ccccc1`, the “hERG current change (%, negative = inhibition) at 1uM” value is reported as 13%.

For the compound `CC1(C)CC(Cc2nc(=S)[nH][nH]2)C(=O)O1` (stereo not drawn), the “hERG current change (%, negative = inhibition) at 1uM” value stood at 16.3%.

Consider `COCCn1c(=O)[nH]c(=O)c2c1nc(-c1cc(Br)c3c(c1)OCO3)n2Cc1ccccc1`, for which the “hERG current change (%, negative = inhibition) at 1uM” value was -2.58%.

As for `O=C(NC(=S)Nc1ccccc1N1CCCC1)c1cccs1`, the “hERG current change (%, negative = inhibition) at 1uM” value is 4.24%.

As to `COc1ccc(-c2cc3ccccc3n2CC(O)CN2CCC(C)CC2)cc1.O=C(O)C(=O)O` (stereo not drawn), the “hERG current change (%, negative = inhibition) at 1uM” value is listed as -49.8%.

`CN(C(=O)CSc1nc2ccc([N+](=O)[O-])cc2s1)C1CCS(=O)(=O)C1` (stereo not drawn): the “hERG current change (%, negative = inhibition) at 1uM” value is given as -26%.

In the case of `COc1ccc(N2CCN(C(=O)C3=NNC(=O)CC3)CC2)cc1`, the “hERG current change (%, negative = inhibition) at 1uM” value was determined as 9.6%.

For `COc1ccc(OC)c(C2C3=C(CCCC3=O)NC3=C2C(=O)CCC3)c1`, the “hERG current change (%, negative = inhibition) at 1uM” value amounted to 6.99%.

As to `Cc1cc(N)ccc1N=Nc1c(C)n(C)n(-c2ccccc2)c1=O`, the “hERG current change (%, negative = inhibition) at 1uM” value was 3.75%.

Consider `CCCn1c(N)c(N(CCOC)C(=O)CSCC(=O)Nc2ccc(C)cc2)c(=O)[nH]c1=O`, for which the “hERG current change (%, negative = inhibition) at 1uM” value is reported as -7.52%.

In the case of `CCOC(=O)CSc1nnc(Cc2ccccc2)n1-c1cccc(Cl)c1`, the “hERG current change (%, negative = inhibition) at 1uM” value is given as -16.6%.

Consider `CNC(=O)c1ccc(CNC(=O)OCC(F)(F)F)cc1`, for which the “hERG current change (%, negative = inhibition) at 1uM” value came to 4.96%.

As for `CCOc1cc(S(=O)(=O)N2CCN(S(=O)(=O)CC)CC2)c(OCC)cc1-n1cnnn1`, the “hERG current change (%, negative = inhibition) at 1uM” value worked out at 11.3%.

For the compound `CC(C)(C)SCCNC(=O)CSCc1ccc([N+](=O)[O-])cc1`, the “hERG current change (%, negative = inhibition) at 1uM” value is recorded as -48.1%.

Regarding `CC(/C=N/Nc1nc(C)cc(=O)[nH]1)=C\c1ccccc1`, the “hERG current change (%, negative = inhibition) at 1uM” value is -2.99%.

As for `Cc1cc(C)n(C(=O)N(c2ccccc2)c2ccccc2)n1`, the “hERG current change (%, negative = inhibition) at 1uM” value was determined as 14.6%.

`NC(=O)Cn1cc(/C=N\NS(=O)(=O)c2ccc(Cl)cc2)c2ccccc21`: the “hERG current change (%, negative = inhibition) at 1uM” value came to 1.24%.

As to `C=CCOc1c(Br)cc(/C=N/n2c(CC)n[nH]c2=S)cc1Br`, the “hERG current change (%, negative = inhibition) at 1uM” value was 11.7%.

With `CCOC(=O)N1CCN(C(=O)COC(=O)c2cc(Cl)c(O)c(Cl)c2)CC1`, the “hERG current change (%, negative = inhibition) at 1uM” value is 14.6%.

With `Cc1ccc(OCC(=O)N/N=C\c2ccc(O)c([N+](=O)[O-])c2)c([N+](=O)[O-])c1`, the “hERG current change (%, negative = inhibition) at 1uM” value amounted to 8.26%.

Turning to `CCCC(=O)Nc1nc2ccc(NC(=O)c3ccc(Br)o3)cc2s1`, the “hERG current change (%, negative = inhibition) at 1uM” value is on record as 7.75%.

As to `COc1ccc(NC(=O)CC2SC(N)=NC2=O)c([N+](=O)[O-])c1` (stereo not drawn), the “hERG current change (%, negative = inhibition) at 1uM” value was determined as 24.4%.

On to `Cc1cc(=O)oc2cc(NC(=O)c3cccc(F)c3)ccc12`, for which the “hERG current change (%, negative = inhibition) at 1uM” value worked out at 8.86%.

Take `CNC(=O)NC(=O)C(OC(=O)c1cccc(S(=O)(=O)N2CCCCC2)c1)c1ccccc1` (stereo not drawn): the “hERG current change (%, negative = inhibition) at 1uM” value is reported as 11.5%.

Consider `Cc1cccc(C)c1OCC(O)CN1CCN(c2ccccn2)CC1` (stereo not drawn), for which the “hERG current change (%, negative = inhibition) at 1uM” value is given as -1.11%.

`CC(C)CN(C(=O)CSc1nncn1C)C1CCS(=O)(=O)C1` (stereo not drawn): the “hERG current change (%, negative = inhibition) at 1uM” value is recorded as -0.893%.

For `CCSc1n[nH]c2nc3c(c(=O)n12)C1(CCCC1)Cc1ccccc1-3`, the “hERG current change (%, negative = inhibition) at 1uM” value stood at 17%.

For `O=C(NCc1ccc(Cl)cc1)C1CCCN(S(=O)(=O)c2cnc[nH]2)C1` (stereo not drawn), the “hERG current change (%, negative = inhibition) at 1uM” value came out at 12.3%.

For `C/C(=N\NC(=O)c1cccnc1)c1ccc(Br)cc1`, the “hERG current change (%, negative = inhibition) at 1uM” value is on record as -0.376%.

Take `Nc1ccc(Br)cc1C(=O)O`: the “hERG current change (%, negative = inhibition) at 1uM” value came to 6.36%.

On to `O=C(CN1C(=O)c2ccccc2C1=O)NCc1ccc(F)cc1`, for which the “hERG current change (%, negative = inhibition) at 1uM” value worked out at 13.1%.

As to `CC1=C(C(=O)N(C)C)C(c2cccc(Cl)c2)NC(=O)N1` (stereo not drawn), the “hERG current change (%, negative = inhibition) at 1uM” value was 14.2%.

As to `COc1ccc(C[C@@H]2CN3C(=NC[C@@H]3C)N2C[C@H](C)NC(=O)c2ccc(C)c(Br)c2)cc1`, the “hERG current change (%, negative = inhibition) at 1uM” value is on record as -56.4%.

As to `COc1ccccc1N(CC(=O)NC1CCCC1)C(=O)c1csnn1`, the “hERG current change (%, negative = inhibition) at 1uM” value worked out at 0.0012%.

Consider `COc1ccc(N2C(=O)CC(NCc3cccc(F)c3)C2=O)cc1` (stereo not drawn), for which the “hERG current change (%, negative = inhibition) at 1uM” value came out at 7.93%.
